According to the antibiotic and cytotoxicity screens of Wong et al. (2023):
The other results are listed elsewhere or left out.

test system: S. aureus RN4220; assay: growth inhibition call (relative growth <= 0.2); details: 50 µM

Growth inhibition call, inactive:
Cc1noc(C)c1NC(=O)Nc1ccc2c(c1)C(=O)N([C@@H](C)CO)C[C@@H](C)[C@H](CN(C)Cc1ccc3c(c1)OCO3)OCCCC[C@@H](C)O2
Cc1noc(C)c1S(=O)(=O)N(C)C[C@@H]1Oc2ccc(NC(=O)C3CCCCC3)cc2CC(=O)N([C@H](C)CO)C[C@H]1C
C[C@H](CO)N1C[C@H](C)[C@@H](CN(C)C(=O)Nc2ccccc2)OCCCC[C@H](C)Oc2ccc(NC(=O)Cc3ccccc3)cc2C1=O
Cc1ccc(S(=O)(=O)Nc2cccc3c2O[C@@H](CN(C)C(=O)Nc2cccc4ccccc24)[C@@H](C)CN([C@H](C)CO)C3=O)cc1
C[C@@H]1CCCCO[C@H](CN(C)C(=O)Nc2ccccc2)[C@H](C)CN([C@H](C)CO)C(=O)c2cc(NC(=O)NC3CCCCC3)ccc2O1
CN1N=C(N)c2cn([C@@H]3O[C@H](COP(=O)(O)O)[C@@H](O)[C@H]3O)c3ncnc1c23
C[C@H](CO)N1C[C@H](C)[C@H](CN(C)C(=O)Nc2ccc3c(c2)OCO3)Oc2c(NC(=O)C3CC3)cccc2C1=O
CCCCOc1cc(C(=O)OCCN(CC)CC)ccc1N.Cl
C[C@H](CO)N1C[C@H](C)[C@H](CN(C)C(=O)Nc2ccc(F)cc2)Oc2ccc(NC(=O)CCCCCC(=O)Nc3ccccc3N)cc2C1=O
Cc1ccc(S(=O)(=O)Nc2cccc3c2O[C@H](CN(C)C(=O)Nc2ccc(C(F)(F)F)cc2)[C@@H](C)CN([C@@H](C)CO)C3=O)cc1
